The RNAGym collection of RNA variant scans (doi:10.1093/nar/gkz1192)
The source gives no read counts; variants with many changes may rest on few reads.

B1: CPEB3 Ribozyme (parent)
chain: UAACAGGGGGCCACAGCAGAAGCGUUCACGUCGCAGCCCCUGUCAGAUUCUGGUGAAUCUGCGAAUUCUGCUGUAUAUCUC

Variants of: B1
Experiment: self-cleavage, relative activity (ratio to wild type); higher = more cleavage; in vitro, sequencing
How it was run: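 Barcoded CPEB3 ribozyme mutants, produced by rounds of error-prone PCR, self-cleaved while being transcribed with T7 RNA polymerase for 5 hours at 37°C and during a subsequent 15 min DNase I step before EDTA was added. Sequencing of template-switched cDNA on Illumina gave cleaved and total reads, and DNA sequencing assigned barcodes to variants. Each variant's relative activity is its cleaved/total read fraction divided by the unmutated ribozyme's fraction, averaged across three batches. A variant needed a minimum of 5 reads.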

**Q.** For U26A C62U G73A, which self-cleavage is on record?
**A.** 0.25

**Q.** For U26A G30A A56U, which self-cleavage is on record?
**A.** 0.15

**Q.** For U26A G30A A57G U69C, which self-cleavage is on record?
**A.** 0.14

**Q.** With U26A G30A U41C G70A U76A as the variant, how does the self-cleavage read?
**A.** 0.35

**Q.** Which self-cleavage does the source give for U26A G30A U49A here?
**A.** 0.46

**Q.** Which self-cleavage does the source give for U26A G30A U69G here?
**A.** 0.09

**Q.** With U26A G30A U78C as the variant, how does the self-cleavage read?
**A.** 0.16

**Q.** With U26A G30C U60C U78C as the variant, how does the self-cleavage read?
**A.** 0.05

**Q.** For U26A G30U C34U U58A, which self-cleavage is on record?
**A.** 0.14

**Q.** With U26A G33A U60C A64U U66C U74C as the variant, how does the self-cleavage read?
**A.** 0.09

**Q.** With U26A G33C C62U A77G as the variant, how does the self-cleavage read?
**A.** 0.05

**Q.** With U26A G33C U43G A65G U76C as the variant, how does the self-cleavage read?
**A.** 0.06

**Q.** Which self-cleavage does the source give for U26A G33U A35G U48C U72C here?
**A.** 0.06

**Q.** For U26A G36A A47G G70A, which self-cleavage is on record?
**A.** 0.11

**Q.** Which self-cleavage does the source give for U26A G36A A64G here?
**A.** 0.09

**Q.** Which self-cleavage does the source give for U26A G36A U43C A56G U67C here?
**A.** 0.1

**Q.** For U26A G42A A47U U67C, which self-cleavage is on record?
**A.** 0.05

**Q.** With U26A G42A U58C as the variant, how does the self-cleavage read?
**A.** 0.09

**Q.** With U26A G53C U72A as the variant, how does the self-cleavage read?
**A.** 0.65

**Q.** Which self-cleavage does the source give for U26A G63A A64C here?
**A.** 0.2

**Q.** For U26A G63A G73A, which self-cleavage is on record?
**A.** 1.23

**Q.** With U26A U31A A45G U48C as the variant, how does the self-cleavage read?
**A.** 0.08

**Q.** With U26A U31A A47G U80A as the variant, how does the self-cleavage read?
**A.** 0.45

**Q.** With U26A U31A U67C U76G A77G as the variant, how does the self-cleavage read?
**A.** 0.1

**Q.** Which self-cleavage does the source give for U26A U31C A35G here?
**A.** 1.05

**Q.** With U26A U31C A35G U48C U74C U78C as the variant, how does the self-cleavage read?
**A.** 1.16

**Q.** With U26A U31C A35G U60C U66C C68A as the variant, how does the self-cleavage read?
**A.** 0.21

**Q.** For U26A U31C A35U, which self-cleavage is on record?
**A.** 0.49

**Q.** Which self-cleavage does the source give for U26A U31C A35U A45G C59A here?
**A.** 0.15

**Q.** With U26A U31C A35U U41A A47G U74A U78C as the variant, how does the self-cleavage read?
**A.** 0.23

**Q.** With U26A U31C A47G U51C U54C A56U U60A as the variant, how does the self-cleavage read?
**A.** 0.17

**Q.** With U26A U31C A75G as the variant, how does the self-cleavage read?
**A.** 0.57

**Q.** For U26A U31C C40A G55U A64U U69C, which self-cleavage is on record?
**A.** 0.06

**Q.** Which self-cleavage does the source give for U26A U31C G52C A65G U69C U74A here?
**A.** 0.11

**Q.** With U26A U31C U43C as the variant, how does the self-cleavage read?
**A.** 0.25

**Q.** Which self-cleavage does the source give for U26A U31C U51A here?
**A.** 0.84

**Q.** For U26A U31C U51A U54C, which self-cleavage is on record?
**A.** 0.4

**Q.** For U26A U31C U60C U72C, which self-cleavage is on record?
**A.** 0.14

**Q.** For U26A U31C U66C U69C, which self-cleavage is on record?
**A.** 0.1

**Q.** Which self-cleavage does the source give for U26A U41A A47G here?
**A.** 0.54

**Q.** Which self-cleavage does the source give for U26A U41A A56U A64G here?
**A.** 0.14

**Q.** With U26A U41A U69C as the variant, how does the self-cleavage read?
**A.** 0.13

**Q.** Which self-cleavage does the source give for U26A U41A U76A here?
**A.** 0.19

**Q.** With U26A U41A U80C as the variant, how does the self-cleavage read?
**A.** 0.24

**Q.** With U26A U41C A57G as the variant, how does the self-cleavage read?
**A.** 0.54

**Q.** Which self-cleavage does the source give for U26A U41C C44U A57G here?
**A.** 0.28

**Q.** With U26A U41C U48C as the variant, how does the self-cleavage read?
**A.** 0.53

**Q.** Which self-cleavage does the source give for U26A U41C U80A here?
**A.** 0.67

**Q.** Which self-cleavage does the source give for U26A U41G A47G here?
**A.** 0.23

**Q.** Which self-cleavage does the source give for U26A U41G A57U U72C here?
**A.** 0.21

**Q.** For U26A U41G U69C, which self-cleavage is on record?
**A.** 0.06

**Q.** With U26A U41G U78C as the variant, how does the self-cleavage read?
**A.** 0.13

**Q.** Which self-cleavage does the source give for U26A U43A A47G U69A here?
**A.** 0.07

**Q.** For U26A U43A A65G U72C, which self-cleavage is on record?
**A.** 0.08

**Q.** With U26A U43A U60A U72A as the variant, how does the self-cleavage read?
**A.** 0.05

**Q.** With U26A U43C A64G as the variant, how does the self-cleavage read?
**A.** 0.14

**Q.** For U26A U43C U49A, which self-cleavage is on record?
**A.** 0.16

**Q.** With U26A U43C U54C U69A as the variant, how does the self-cleavage read?
**A.** 0.09

**Q.** With U26A U43C U58C U60A U78A as the variant, how does the self-cleavage read?
**A.** 0.45

**Q.** Which self-cleavage does the source give for U26A U43C U60C here?
**A.** 0.08

**Q.** Which self-cleavage does the source give for U26A U43C U60G A64G U66C here?
**A.** 0.08

**Q.** For U26A U48C A57G U69A, which self-cleavage is on record?
**A.** 0.41

**Q.** With U26A U48C A64G as the variant, how does the self-cleavage read?
**A.** 0.28

**Q.** Which self-cleavage does the source give for U26A U48C A65C here?
**A.** 0.2

**Q.** With U26A U48C U49C U51A as the variant, how does the self-cleavage read?
**A.** 0.28

**Q.** For U26A U48C U51A A64G, which self-cleavage is on record?
**A.** 0.1

**Q.** With U26A U49A U66C U78C as the variant, how does the self-cleavage read?
**A.** 0.1

**Q.** Which self-cleavage does the source give for U26A U49C A57U G70A here?
**A.** 0.09

**Q.** With U26A U51A A56G A57G A65G A75G U78C as the variant, how does the self-cleavage read?
**A.** 0.12

**Q.** For U26A U51A U72G U76A, which self-cleavage is on record?
**A.** 1.24

**Q.** Which self-cleavage does the source give for U26A U51A U74A here?
**A.** 1.33

**Q.** For U26A U51C U60A A64G U66C U69A, which self-cleavage is on record?
**A.** 0.15

**Q.** For U26A U51C U69C G70U, which self-cleavage is on record?
**A.** 0.43

**Q.** Which self-cleavage does the source give for U26A U51G U54G U80C here?
**A.** 0.31

**Q.** For U26A U54C A56U U72A, which self-cleavage is on record?
**A.** 0.16

**Q.** With U26A U54C A64U C79G as the variant, how does the self-cleavage read?
**A.** 0.1

**Q.** For U26A U54C U66C U80C, which self-cleavage is on record?
**A.** 0.63

**Q.** With U26A U58C C71U as the variant, how does the self-cleavage read?
**A.** 0.2

**Q.** With U26A U58C U72A as the variant, how does the self-cleavage read?
**A.** 0.24

**Q.** Which self-cleavage does the source give for U26A U58C U72C here?
**A.** 0.59

**Q.** With U26A U58C U80A as the variant, how does the self-cleavage read?
**A.** 0.46

**Q.** With U26A U60A U69A U76C as the variant, how does the self-cleavage read?
**A.** 0.19

**Q.** With U26A U66C A77U as the variant, how does the self-cleavage read?
**A.** 0.44
